Measured values as given in the supplement of paper PMC10126150.
Values marked as one replicate rest on one cluster of the flow cell; about a third of the high ones do not repeat.

Tested on: ATP
Assay: switch fluorescence ratio, 500 uM ATP over buffer (Cy3 cluster intensity, sum of 5 cycles each) (fold (ratio)); higher = stronger signal-on switching upon ATP binding; sequences stand for … in TCGTCGGCAGCGTCAGATGTGTATAAGAGACAGTTTTTTTTTTTTTTTTTTTTTTTTT…TC
Conditions: aptamer strand: ATP DNA aptamer (quencher-CACCTGGGGGAGTATTGCGGAGGAAGG + anchor), 100 nM annealed; ATP concentration: 500 uM; one replicate
Procedure, shortened: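 Between each of five buffer/ATP cycles, the flow-cell was stripped with NaOH and re-annealed. Each cycle imaged Cy3-labelled switching-strand clusters, annealed to 100 nM quencher-labelled ATP aptamer on a modified Illumina MiSeq flow-cell, first in selection buffer and then after 15 min with 500 uM ATP at 22 °C. The fluorescence ratio is summed target-cycle over summed buffer-cycle Cy3 intensity per cluster, averaged per switch-domain sequence, with clusters outside 100-1000 RFU excluded.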
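Note: ATP exposure 15 min at 22 °C before imaging.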

TCGGTCCGAC
switch fluorescence ratio: 0.955

AAAGTTCATT
switch fluorescence ratio: 1.01

AAGCCTTGCA
switch fluorescence ratio: 1.04

ACATGATATG
switch fluorescence ratio: 1

GGTCCTCCGA
switch fluorescence ratio: 1.34

AACTTAGTGT
switch fluorescence ratio: 1.03

CTAAGGCTG
switch fluorescence ratio: 0.985

TTAGCGAGGG
switch fluorescence ratio: 1.17

GAGCGTTTAC
switch fluorescence ratio: 1.3

CCCGTGTGGG
switch fluorescence ratio: 0.994

ATTAGACGAC
switch fluorescence ratio: 1.07

TCCCGATACT
switch fluorescence ratio: 3.55

GCTGATAGGG
switch fluorescence ratio: 1.03

CGACTGGAAA
switch fluorescence ratio: 1.01

GCATCTG
switch fluorescence ratio: 1.02

TAGAAATGGA
switch fluorescence ratio: 0.99

TGCAACTTAA
switch fluorescence ratio: 1.02

GAAGTACGGT
switch fluorescence ratio: 1.18

GAGTATTTTA
switch fluorescence ratio: 0.936

TGAGTATGGA
switch fluorescence ratio: 0.99

GACGCATGGA
switch fluorescence ratio: 1.98

CGCTCCAGAG
switch fluorescence ratio: 1.1

CCGGTGATTA
switch fluorescence ratio: 1.07

GGTCAATTCC
switch fluorescence ratio: 1.01

GAGTTATTGA
switch fluorescence ratio: 1.01

TGGCCTAAAT
switch fluorescence ratio: 1.05

TCAACTCAAA
switch fluorescence ratio: 0.972

GACAGCTCTT
switch fluorescence ratio: 1.01

ATACCATACG
switch fluorescence ratio: 1.46

CTCCTGTCCC
switch fluorescence ratio: 1.14

TCTTGGGCAA
switch fluorescence ratio: 1.85

CGAAACCTGG
switch fluorescence ratio: 1.25

TCCTAGTAAG
switch fluorescence ratio: 1.03

GCGGACTCAA
switch fluorescence ratio: 1.09

ACTCTGAGGT
switch fluorescence ratio: 1.05

AACGCATCAT
switch fluorescence ratio: 1.08

ATGGGCAGGA
switch fluorescence ratio: 1.25

CAGTGGATAA
switch fluorescence ratio: 1.01

ATATGAGGTA
switch fluorescence ratio: 0.956

ACCCTTGAGT
switch fluorescence ratio: 1.04

TGGTTAGCT
switch fluorescence ratio: 0.997

TAACTATGGA
switch fluorescence ratio: 0.96

TAGAAGAGTC
switch fluorescence ratio: 0.99

TCGAGGCGTT
switch fluorescence ratio: 1.04

AGCATGGCC
switch fluorescence ratio: 1.01

TGAAAACGTT
switch fluorescence ratio: 1.02

ACCGCGTTAT
switch fluorescence ratio: 1.21

TGATTACATG
switch fluorescence ratio: 0.986

AGTCAGCAGG
switch fluorescence ratio: 1.06

TTCGAAGTCA
switch fluorescence ratio: 0.965

GAGTATCACC
switch fluorescence ratio: 0.987

TCAAAGCTCT
switch fluorescence ratio: 1.09

CTCGAACTT
switch fluorescence ratio: 1.02

TTATGCCTCT
switch fluorescence ratio: 1

CCGATGAGAT
switch fluorescence ratio: 2.8

CCGCAGTTTG
switch fluorescence ratio: 4.1

TGCTTTCGGA
switch fluorescence ratio: 0.978

AAATGTCGGA
switch fluorescence ratio: 0.955

GAGTTAGGCG
switch fluorescence ratio: 0.881

TAAGCGGGTT
switch fluorescence ratio: 1.01

GAGGTGCTAA
switch fluorescence ratio: 0.958

CTATGAGGGA
switch fluorescence ratio: 0.976

AATAGTGACT
switch fluorescence ratio: 0.991

TCGAACGTCT
switch fluorescence ratio: 1.17

GAAAGGAGCT
switch fluorescence ratio: 0.985

CCTAGAAAGT
switch fluorescence ratio: 0.991

GCCTCGAGAT
switch fluorescence ratio: 1.17

CACGTTAACG
switch fluorescence ratio: 0.967

GAATTTACGC
switch fluorescence ratio: 1.06

TCCATTACAC
switch fluorescence ratio: 1.03

TTCGGAGGCG
switch fluorescence ratio: 0.972

TGTGGGAGTT
switch fluorescence ratio: 0.979

GGAAGAACCC
switch fluorescence ratio: 1.03

ATTGTGACAT
switch fluorescence ratio: 0.994

TTCCACATGG
switch fluorescence ratio: 1.12

CGATAGTGCA
switch fluorescence ratio: 1

TTCCCTGTAG
switch fluorescence ratio: 1.03

GGAGTGACAG
switch fluorescence ratio: 1.04

ACGCGTATCA
switch fluorescence ratio: 1.03

CGGAGGGTTC
switch fluorescence ratio: 1.1

TACCTCCCA
switch fluorescence ratio: 1.38

GTTTTATGCC
switch fluorescence ratio: 1.01

GAAAAATCGC
switch fluorescence ratio: 0.997

CGGCCACGCT
switch fluorescence ratio: 0.999

CTTATTTGAA
switch fluorescence ratio: 1.11

GGCATCGACG
switch fluorescence ratio: 0.96

AAGTTCATAA
switch fluorescence ratio: 1

ACTACAGTCT
switch fluorescence ratio: 1.08

GGTCGCGGTT
switch fluorescence ratio: 0.987

AGTTCGACAC
switch fluorescence ratio: 1.02

AAGTAGTGAT
switch fluorescence ratio: 1.01

ATAGTGGGCT
switch fluorescence ratio: 0.978

TTCAGGTTAA
switch fluorescence ratio: 1.01

AATCTACTGC
switch fluorescence ratio: 1.03

TAGCTTTGGT
switch fluorescence ratio: 0.976

GGCAAATAAC
switch fluorescence ratio: 1.05

AGCTGGGTTG
switch fluorescence ratio: 0.966

AGTATTTCTC
switch fluorescence ratio: 0.989

ACAGAGCACG
switch fluorescence ratio: 1.06

ACAATGGAGA
switch fluorescence ratio: 0.966

GGCGGGCGGA
switch fluorescence ratio: 1.12

GGGCCA
switch fluorescence ratio: 0.945

CTATGCTGCT
switch fluorescence ratio: 0.993

AAGTACTTTG
switch fluorescence ratio: 1.11

GCCAGCTACC
switch fluorescence ratio: 1.14

GGTATACGGA
switch fluorescence ratio: 1.01

GACAATAAGG
switch fluorescence ratio: 0.989

ATTTCAGGCC
switch fluorescence ratio: 1

CGCGGTGTG
switch fluorescence ratio: 1.02

TTAGGTCGTC
switch fluorescence ratio: 1.02

TTGGCTACCT
switch fluorescence ratio: 1.13

GGTTGAATCC
switch fluorescence ratio: 0.974

ATTCTCTGT
switch fluorescence ratio: 1.02

CTGCTATCTT
switch fluorescence ratio: 1.08

TAAAGAGCAA
switch fluorescence ratio: 1.48

GGTTTTCTCT
switch fluorescence ratio: 0.996

CGGGTTTTGT
switch fluorescence ratio: 1.01

CTACCCGTTT
switch fluorescence ratio: 0.949

AGGGTGAAGG
switch fluorescence ratio: 1

AGCGGGG
switch fluorescence ratio: 0.976

CATCCCCGCC
switch fluorescence ratio: 2.46

ACGAATCTTT
switch fluorescence ratio: 1

TGGAGGAGGC
switch fluorescence ratio: 1.15

CTTCGCCCGG
switch fluorescence ratio: 1.31

AAAGACACGT
switch fluorescence ratio: 1.03

TTGGGCTCAT
switch fluorescence ratio: 0.974

GATACATACG
switch fluorescence ratio: 1.53

GCTGGTTTTT
switch fluorescence ratio: 0.949

GTCACATAGG
switch fluorescence ratio: 1.05

GACATATTTG
switch fluorescence ratio: 1

CAAGGGTTT
switch fluorescence ratio: 0.994

ACTTAGGCCC
switch fluorescence ratio: 1

CCACGGCTG
switch fluorescence ratio: 1.1

TAACAGCGTT
switch fluorescence ratio: 1.02

CGTCGAGTC
switch fluorescence ratio: 1.02

TCAAACTAGC
switch fluorescence ratio: 0.985

AGGCAACTTG
switch fluorescence ratio: 1.03

CTAGACTAGA
switch fluorescence ratio: 1.01

CAACCATTT
switch fluorescence ratio: 1.03

TTGCTAGATC
switch fluorescence ratio: 1.06

CGAGGCTACT
switch fluorescence ratio: 2.89

CCAATTAAGT
switch fluorescence ratio: 0.997

GGCCAGGATT
switch fluorescence ratio: 0.995

TGGGCTTGGG
switch fluorescence ratio: 0.953

GTTTTAGTCG
switch fluorescence ratio: 0.98

AGCATAGATC
switch fluorescence ratio: 1.03

CTAGGGTATC
switch fluorescence ratio: 1.01

GGATAGAAT
switch fluorescence ratio: 0.942

CTGGTAACAA
switch fluorescence ratio: 1.05

AAATCTGCGG
switch fluorescence ratio: 1.03

TAGACAGAGG
switch fluorescence ratio: 1.02

ATCGTGTACG
switch fluorescence ratio: 0.96

CGACCACAGA
switch fluorescence ratio: 1.38

TTATTACTAT
switch fluorescence ratio: 0.972

CAAATAAATC
switch fluorescence ratio: 0.972

CGTCAAATC
switch fluorescence ratio: 0.997

GAACCACTT
switch fluorescence ratio: 1.04

CCGTAACATG
switch fluorescence ratio: 1.32
